Assay results: the supplement of paper PMC9446081
The campaign covered roughly 39,000 compounds. About 220 (0.56%) showed activity. The list shows a part of the results.

What follows are molecules tested on Escherichia coli K-12 BW25113 (assay: relative growth (OD600 normalised to plate interquartile mean) (fraction); higher = less growth inhibition, active = 0.2 or less). Settings: 50 µM; LB; incubation time: overnight (16-24 h).
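Note: static incubation at 37 °C against the wild-type strain, values averaged over two biological replicates.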

Row | Compound | relative growth
1 | CO[C@H]1O[C@H](CO)[C@@H](OC(=O)Nc2ccccc2-c2ccccc2)[C@H](OC(=O)Nc2ccc3c(c2)OCO3)[C@H]1OC(=O)Nc1ccc2c(c1)OCO2 | inactive: 1.03
2 | C[C@@H]1CCCCO[C@@H](CN(C)C(=O)C2CCCCC2)[C@@H](C)CN([C@H](C)CO)C(=O)c2cc(NC(=O)Nc3ccc(C(F)(F)F)cc3)ccc2O1 | inactive: 1.04
3 | CC(C)NC(=O)Nc1cccc2c1O[C@H](CN(C)S(=O)(=O)c1cccs1)[C@@H](C)CN([C@@H](C)CO)C2=O | inactive: 1.01
4 | C[C@@H]1CN([C@H](C)CO)C(=O)c2cc(-c3ccncc3)cnc2O[C@@H]1CN(C)S(=O)(=O)c1ccc(F)cc1 | inactive: 1.01
5 | C[C@H]1CN([C@@H](C)CO)S(=O)(=O)c2ccc(C#CC3(O)CCCC3)cc2O[C@@H]1CN(C)C(=O)Nc1ccc(F)cc1 | inactive: 0.987
6 | CCCC[C@@H](C)/C=C(C)/C=C(\C)C(=O)NC1=C[C@@](O)(/C=C/C=C/C=C/C(=O)NC2C(=O)CCC2=O)[C@@H]2O[C@@H]2C1=O | inactive: 0.814
7 | C[C@@H]1CN([C@@H](C)CO)S(=O)(=O)c2ccc(-c3cncnc3)cc2O[C@H]1CN(C)C(=O)Cc1ccccc1 | inactive: 1
8 | C[C@H](CO)N1C[C@H](C)[C@@H](CN(C)Cc2cccnc2)Oc2cc(C#CCN(C)C)ccc2S1(=O)=O | inactive: 1.02
9 | C[C@H]1CN([C@@H](C)CO)C(=O)c2cc(NC(=O)Nc3cccc4ccccc34)ccc2O[C@@H]1CN(C)Cc1ccc(Oc2ccccc2)cc1 | inactive: 0.999
10 | Cc1noc(C)c1NC(=O)Nc1ccc2c(c1)C(=O)N([C@H](C)CO)C[C@H](C)[C@@H](CN(C)C(=O)Nc1ccc(C(F)(F)F)cc1)OCCCC[C@H](C)O2 | inactive: 1
11 | O=C(C[C@H]1CC[C@@H](NC(=O)CN2CCOCC2)[C@H](CO)O1)NCCc1ccncc1 | inactive: 0.928
12 | C[C@@H]1CCCCO[C@@H](CN(C)C(=O)Nc2ccc3c(c2)OCO3)[C@@H](C)CN([C@H](C)CO)C(=O)c2cc(NC(=O)Nc3ccccc3)ccc2O1 | inactive: 0.981
13 | Cc1noc(C)c1S(=O)(=O)Nc1ccc2c(c1)C(=O)N([C@@H](C)CO)C[C@@H](C)[C@@H](CN(C)C(=O)Nc1ccc3c(c1)OCO3)O2 | inactive: 0.981
14 | CN(C)CCCNC(=O)C[C@@H]1C=C[C@H](NC(=O)Cc2cccnc2)[C@@H](CO)O1 | inactive: 0.95
15 | COc1ccc([Si](C)(C)[C@@H]2[C@@H](CCn3cc([C@H](O)c4ccccc4)nn3)O[C@]3(C(=O)N(c4ccccc4)c4ccccc43)[C@H]2C)cc1 | inactive: 1.03
16 | C[C@@H]1CN([C@H](C)CO)C(=O)c2cc(NS(=O)(=O)c3ccc(Cl)cc3)ccc2O[C@@H](C)CCCCO[C@H]1CN(C)C(=O)Nc1ccc(F)cc1 | inactive: 1.01
17 | C[C@@H]1CN([C@H](C)CO)C(=O)c2cc(NC(=O)CCC(F)(F)F)ccc2O[C@@H](C)CCCCO[C@@H]1CN(C)C(=O)CCC(F)(F)F | inactive: 0.836
18 | C[C@H](CO)N1C[C@H](C)[C@H](CN(C)Cc2ccc(-c3ccccc3)cc2)Oc2c(NC(=O)c3ccc(-c4nccs4)cc3)cccc2C1=O | inactive: 0.994
19 | C[C@@H]1CN([C@H](C)CO)S(=O)(=O)c2ccc(C#CCN(C)C)cc2O[C@H]1CN(C)C(=O)Nc1ccccc1F | inactive: 1.03

Row | Compound | relative growth
20 | C[C@H](CO)N1C[C@H](C)[C@@H](CN(C)Cc2ccc(Cl)c(Cl)c2)Oc2ccc(NS(=O)(=O)c3ccc(F)cc3)cc2CC1=O | inactive: 0.997
21 | Cc1cncc2cccc(S(=O)(=O)N[C@H]3CN[C@H](COC(=O)NCCOCCOCCN)C3)c12 | inactive: 1
22 | COc1ccc(NC(=O)N(C)C[C@H]2OCCCC[C@H](C)Oc3ccc(NC(=O)c4ccccc4)cc3C(=O)N([C@@H](C)CO)C[C@H]2C)cc1 | inactive: 0.99
23 | Cc1cc(-c2ccccc2)nc(-c2ccccc2)c1C | inactive: 0.937
24 | COc1ccc(C#Cc2ccc3c(c2)O[C@H](CN(C)C(C)=O)[C@@H](C)CN([C@@H](C)CO)S3(=O)=O)cc1 | inactive: 1.03
25 | C[C@H]1CN([C@@H](C)CO)C(=O)c2cccc(NS(=O)(=O)c3cccs3)c2O[C@@H]1CN(C)Cc1ccc(Oc2ccccc2)cc1 | inactive: 1
26 | CCCc1cc(-c2nc(-c3ccc(C)cc3)cs2)ccn1 | inactive: 1.02
27 | CN1C(=O)c2cc(NS(=O)(=O)c3cccc(F)c3)ccc2OC[C@H]2O[C@@H](CC(=O)NCCN3CCCCC3)CC[C@@H]21 | inactive: 0.977
28 | C[C@@H]1CN([C@H](C)CO)S(=O)(=O)c2ccc(-c3cccnc3)cc2O[C@H]1CN(C)C(=O)NC1CCCC1 | inactive: 0.998
29 | Cc1noc(C)c1NC(=O)Nc1ccc2c(c1)C(=O)N([C@H](C)CO)C[C@@H](C)[C@H](CN(C)Cc1ccncc1)OCCCC[C@H](C)O2 | inactive: 0.987
30 | C[C@@H]1CCCCO[C@@H](CN(C)CC2CCCCC2)[C@H](C)CN([C@@H](C)CO)C(=O)c2cc(N(C)C)ccc2O1 | inactive: 1.01
31 | CO[C@H]1CN(C)C(=O)c2ccc(NS(=O)(=O)c3cn(C)cn3)cc2OC[C@H](C)N(CCC(F)(F)F)C[C@H]1C | inactive: 0.998
32 | COc1ccc(NC(=O)N(C)C[C@@H]2Oc3ccc(NS(=O)(=O)c4c(C)noc4C)cc3C(=O)N([C@H](C)CO)C[C@H]2C)cc1 | inactive: 1
33 | COC(=O)[C@H](Cc1ccc(-n2cc(C(=O)NO)nn2)cc1)N[C@H](/C=C/C1CC1)[C@@H](O)Cc1ccccc1 | inactive: 1.01
34 | CC(C)NC(=O)N(C)C[C@@H]1Oc2ccc(NC(=O)c3ccncc3)cc2CC(=O)N([C@@H](C)CO)C[C@H]1C | inactive: 0.947
35 | CCN(CC)CCNC(=O)c1cc(S(C)(=O)=O)ccc1OC.Cl | inactive: 1.12
36 | C[C@@H]1CN([C@H](C)CO)C(=O)c2cc(NS(=O)(=O)c3cn(C)cn3)ccc2O[C@@H]1CN(C)S(=O)(=O)c1ccc(F)cc1 | inactive: 1
37 | Cc1noc(C)c1S(=O)(=O)Nc1cccc2c1O[C@H](CN(C)CC1CC1)[C@H](C)CN([C@H](C)CO)C2=O | inactive: 0.998
